In publication PMC7089965 (Frontiers in Microbiology, 2020):
Values after ≈ are worked out from the molar mass of the structure shown. Where a SMILES comes first, the peptide text is derived from it. [ ]: non-standard residue; d: D form. Nspe = C[C@H](NCC(=O)O)c1ccccc1; NHexGly = CCCCCCNCC(=O)O; Nlys = NCCCCNCC(=O)O

Tested on: M. tuberculosis H37Rv
Conditions: broth microdilution, 10^6 CFU/mL, 7 days, 37°C, OD595 and visual

CCCCCCNCC(=O)N(CC(=O)N(CCCCN)CC(=O)N(CCCCCC)CC(=O)N(CC(=O)N(CCCCN)CC(=O)N(CCCCCC)CC(=O)N(CC(=O)N(CCCCN)CC(N)=O)[C@@H](C)c1ccccc1)[C@@H](C)c1ccccc1)[C@@H](C)c1ccccc1 [BM 3] (H-[NHexGly][Nspe][Nlys][NHexGly][Nspe][Nlys][NHexGly][Nspe][Nlys]-NH2)
MIC H37Rv: 16 µg/mL (≈ 12.2 µM)

CCCCCCNCC(=O)N(CC(=O)N(CCCCN)CC(=O)N(CCCCCC)CC(=O)N(CC(=O)N(CCCCN)CC(N)=O)[C@@H](C)c1ccccc1)[C@@H](C)c1ccccc1 [BM 2] (H-[NHexGly][Nspe][Nlys][NHexGly][Nspe][Nlys]-NH2)
MIC H37Rv: 8 µg/mL (≈ 9.11 µM)
